Values marked as one replicate rest on one cluster of the flow cell; about a third of the high ones do not repeat.
system: ATP; experiment: switch fluorescence ratio, 500 uM ATP over buffer (Cy3 cluster intensity, sum of 5 cycles each) (fold (ratio)); higher = stronger signal-on switching upon ATP binding; sequences stand for … in TCGTCGGCAGCGTCAGATGTGTATAAGAGACAGTTTTTTTTTTTTTTTTTTTTTTTTT…TC; settings: aptamer strand: ATP DNA aptamer (quencher-CACCTGGGGGAGTATTGCGGAGGAAGG + anchor), 100 nM annealed; ATP concentration: 500 uM; one replicate
Summary of the method: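 After annealing to 100 nM quencher-labelled ATP aptamer, Cy3-labelled switching-strand clusters on a modified Illumina MiSeq flow-cell were imaged in selection buffer. A second image followed after 15 min with 500 uM ATP at 22 °C, and five such buffer/ATP cycles were done, each separated by NaOH stripping and re-annealing. The fluorescence ratio, averaged per switch-domain sequence, is summed target-cycle over summed buffer-cycle Cy3 intensity per cluster, with clusters outside 100-1000 RFU excluded.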
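Further: ATP exposure 15 min at 22 °C before imaging.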

| Sequence | switch fluorescence ratio |
| --- | --- |
| GCGGTCTTCA | 1.01 |
| AGTCGACCTT | 1.03 |
| TGCGATCTGC | 1 |
| CCCAAGTATA | 1.04 |
| AGAAGAGGGT | 0.98 |
| GACTATTGAT | 1 |
| CTAAATAGT | 1.04 |
| CACGCCGTAG | 0.999 |
| CAAATGGACC | 1.04 |
| GCAAAACCCC | 1.18 |
| AATACCACGC | 1.1 |
| TGCTCTGACG | 0.996 |
| CTACAGTTTA | 1 |
| AACGGGGGAA | 0.96 |
| GCAGGGCTTT | 0.999 |
| TCGAACGA | 1.03 |
| TACGGCTGGA | 0.989 |
| ACAGCGTCGA | 1.05 |
| GGGGAAGT | 0.904 |
| ATTATAGGTG | 1.4 |
| CGGCAGTTCT | 0.999 |
| CAGGGCCTAT | 0.998 |
| GATGTCTCTT | 0.994 |
| GAAAGCTTAT | 1.04 |
| TCGGCAGATA | 1.02 |
| CGTTGGGACT | 1 |

| Sequence | switch fluorescence ratio |
| --- | --- |
| GCAATTCGCC | 4.03 |
| CTTGCACATT | 1.01 |
| CCGCATTTTA | 3.4 |
| CTGATTTGGA | 0.958 |
| AGTGGTAATT | 1.01 |
| AATTCAGACC | 1.02 |
| CGGGGCGACC | 1.02 |
| AAACATAGGC | 1.05 |
| AATACACGAG | 1.01 |
| GCTCACATGA | 1.02 |
| TTAGCGGGGC | 1.04 |
| TCGCATGGT | 1.16 |
| CACGAGCTTC | 1.04 |
| GGTTTACAGG | 0.975 |
| AGTGGTTAGG | 0.974 |
| TGCTTCCGTA | 1.08 |
| GATCCTTCGC | 2.98 |
| AATACCAAGC | 1.06 |
| AAGAGGAGTT | 0.983 |
| AGAAAGTAAC | 0.997 |
| TCAGACTCGT | 0.968 |
| CTGTGAAGGT | 1.02 |
| GTATCGACAC | 1.04 |
| TCAACCTGTT | 0.999 |
| GAATTGACTG | 0.917 |
| AAACCATTAC | 1.57 |

| Sequence | switch fluorescence ratio |
| --- | --- |
| AGTAATTCGG | 1.01 |
| CTTCATCGGA | 1.05 |
| TTTAATACCG | 0.949 |
| GAGCTTGGCT | 0.939 |
| TGTTAAGTGA | 1.02 |
| ATCCACGGCG | 1.05 |
| AGGATAGCTA | 0.996 |
| CCATAGTTGG | 1.01 |
| CTAAAGATTA | 1.02 |
| CCACCTTTG | 1.03 |
| GGTTTTACAG | 1.02 |
| AGTCGATCGT | 1.01 |
| GCAGTATAGT | 1.01 |
| CTCTATGGT | 0.981 |
| AGGCGTTGCG | 0.96 |
| TGCACGGTGC | 0.997 |
| ACCACTTAGT | 1.07 |
| GACAACTAAA | 0.984 |
| CGTACTAGGA | 1.02 |
| TCTAGATATT | 0.981 |
| GAGCCCATGA | 1.02 |
| ACTCGGGTTG | 1 |
| CGGAGACTCA | 1.06 |
| CGATCCAACC | 1.05 |
| GCGTTGTG | 1.03 |
| CGCATGCTGA | 1.01 |

| Sequence | switch fluorescence ratio |
| --- | --- |
| AGAGTGGAT | 0.952 |
| CTGCTGACAC | 1.14 |
| ATATTTTGAT | 1.01 |
| TAACCCAATT | 1 |
| ATTGGCTCAT | 1 |
| GGTATGCATA | 1.04 |
| GAACACTGCG | 1.03 |
| GGCGAATGCG | 1 |
| ACACGGGCCG | 1.02 |
| CGCGCTCATT | 1.03 |
| CCATTCCCCC | 1.14 |
| CAGAAAATCA | 0.985 |
| CGCTGTCCGG | 1.01 |
| TCAGGATGC | 0.963 |
| CGGATTGGGT | 1.01 |
| GCCTTGTTGA | 0.986 |
| CAAATAGCGC | 0.977 |
| AGGGTTAAAG | 1.01 |
| TTTCTTTACG | 1.04 |
| GCAGCTGGAT | 0.971 |
| TCAGGCGTCC | 0.974 |
| TGAGGAAACG | 0.976 |
| CCGGATGTAC | 2.98 |
